Consider 5 molecules from PMC10948934.

Sequences of proteins named here, by UniProt entry; tags and fusion partners are left off. A change or cut given only in a name is not applied to a line headed by its entry. A line that says so, or that is headed by a name, gives the form on record, which may keep a tag or linker. Residues count along the entry.
MSP domain of human VAP-B (1-210), WT, C-terminal 6His-tag (O95292, residues 1-210): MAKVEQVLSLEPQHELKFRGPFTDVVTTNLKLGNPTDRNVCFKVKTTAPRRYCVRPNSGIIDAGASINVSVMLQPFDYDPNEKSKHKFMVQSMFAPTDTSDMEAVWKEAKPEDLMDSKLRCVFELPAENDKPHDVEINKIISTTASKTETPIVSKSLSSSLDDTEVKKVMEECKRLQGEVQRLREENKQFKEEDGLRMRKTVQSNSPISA
MSP domain of human VAP-B (1-210), K87D/M89D mutant, C-terminal 6His-tag (O95292, form named): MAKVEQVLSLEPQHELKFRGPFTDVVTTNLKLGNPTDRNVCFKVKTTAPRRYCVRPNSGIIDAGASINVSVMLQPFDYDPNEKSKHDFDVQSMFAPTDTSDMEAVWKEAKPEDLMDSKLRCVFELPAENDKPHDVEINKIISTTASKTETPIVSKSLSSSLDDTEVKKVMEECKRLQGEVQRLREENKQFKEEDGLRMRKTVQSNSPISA

Positions count from the first letter of the chain named. Results are given in words; binding and its absence hold for the method and conditions named. In cells and extracts the contact can be indirect. Some results given as binding are weak or reduced against the parent protein; the word gives no strength. For some assays here: Where a sequence is shown, tags or fusion partners need not be part of it.

Test [1] addresses T1, MSP domain of human VAP-A (8-212), K94D/M96D mutant, C-terminal 6His-tag (human) (UniProt Q9P0L0).
T1 sequence: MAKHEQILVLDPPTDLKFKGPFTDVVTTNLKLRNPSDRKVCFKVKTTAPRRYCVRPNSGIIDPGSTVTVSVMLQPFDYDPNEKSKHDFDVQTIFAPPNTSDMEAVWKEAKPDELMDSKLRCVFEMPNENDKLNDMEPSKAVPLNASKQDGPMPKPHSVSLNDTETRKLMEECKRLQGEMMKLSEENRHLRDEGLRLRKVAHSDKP
Put plainly: pull-down; 100 μg recombinant 6His MSP domain on nickel magnetic beads, incubated with HeLa protein extract 2 h at 4°C in PDB (50 mM Tris-HCl pH 7.4, 50 mM NaCl, 1 mM EDTA, 1% Triton X-100, 5 mM imidazole); eluted with Laemmli buffer; Western blot; only the target purified.

In test [2] the target is T2, MSP domain of human VAP-A (8-212), WT, C-terminal 6His-tag (human) (UniProt Q9P0L0).
T2 sequence: T1 sequence with D87K, D89M
The test is described as above.

Test [3] concerns the target MSP domain of human VAP-B (1-210), K87D/M89D mutant, C-terminal 6His-tag (human) (UniProt O95292). The description is as above.
Test [4] deals with MSP domain of human VAP-B (1-210), WT, C-terminal 6His-tag (human) (UniProt O95292). The description is as above.
The target of test [5] is T3, dVAP-A (Drosophila melanogaster (endogenous in fly heads)) (UniProt Q9W4N8).
T3 sequence: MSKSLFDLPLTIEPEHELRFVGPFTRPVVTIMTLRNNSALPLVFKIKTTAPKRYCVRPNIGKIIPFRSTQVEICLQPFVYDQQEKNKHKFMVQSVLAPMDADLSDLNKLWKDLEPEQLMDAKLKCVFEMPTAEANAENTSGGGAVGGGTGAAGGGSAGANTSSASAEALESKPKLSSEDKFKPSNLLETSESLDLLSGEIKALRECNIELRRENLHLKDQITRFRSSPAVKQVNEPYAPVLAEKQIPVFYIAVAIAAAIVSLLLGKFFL
Kind of test: co-IP; fly head lysates (UAS constructs under GMR promoter); dVAP-A antibody or control IgG overnight at 4°C, protein G Sepharose; Western blot.

B1: ORP1S (short isoform of ORP1) (protein, UniProt Q9BXW6-2 1-437)
chain: MSEEKDCGGGDALSNGIKKHRTSLPSPMFSRNDFSIWSILRKCIGMELSKITMPVIFNEPLSFLQRLTEYMEHTYLIHKASSLSDPVERMQCVAAFAVSAVASQWERTGKPFNPLLGETYELVRDDLGFRLISEQVSHHPPISAFHAEGLNNDFIFHGSIYPKLKFWGKSVEAEPKGTITLELLEHNEAYTWTNPTCCVHNIIVGKLWIEQYGNVEIINHKTGDKCVLNFKPCGLFGKELHKVEGYIQDKSKKKLCALYGKWTECLYSVDPATFDAYKKNDKKNTEEKKNSKQMSTSEELDEMPVPDSESVFIIPGSVLLWRIAPRPPNSAQMYNFTSFAMVLNEVDKDMESVIPKTDCRLRPDIRAMENGEIDQASEEKKRLEEKQRAARKNRSKSEEDWKTRWFHQGPNPYNGAQDWIYSGSYWDRNYFNLPDIY
On to B1, for which the binding result in test [1], in test [2], in test [3] and in test [4] was “no binding” in each case.

B2: RDGB (retinal degeneration B), UAS-RDGB expressed under GMR promoter (protein, UniProt P43125 1-1259)
chain: MLIKEYRIPLPLTVEEYRIAQLYMIAKKSREESHGEGSGVEIIINEPYKDGPGGNGQYTKKIYHVGNHLPGWIKSLLPKSALTVEEEAWNAYPYTRTRYTCPFVEKFSLDIETYYYPDNGYQDNVFQLSGSDLRNRIVDVIDIVKDQLWGGDYVKEEDPKHFVSDKTGRGPLAEDWLEEYWREVKGKKQPTPRNMSLMTAYKICRVEFRYWGMQTKLEKFIHDVALRKMMLRAHRQAWAWQDEWFGLTIEDIRELERQTQLALAKKMGGGEECSDDSVSEPYVSTAATAASTTGSERKKSAPAVPPIVTQQPPSAEASSDEEGEEEEDDDEDENDAIGTGVDLSANQGGSAQRSRSQSIQMAQKGKFGSKGALHSPVGSAHSFDLQVANWRMERLEVDSKSNSDEEFFDCLDTNETNSLAKWSSLELLGEGDDSPPPHGGPSSAASVGGRGNSRQEDSIFNQDFLMRVASERGNKRQLRSSASVDRSHDSSPPGSPSTPSCPTTILILVVHAGSVLDAASELTAKKSDVTTFRGSFEAVMRQHYPSLLTHVTIKMVPCPSICTDALGILSSLSPYSFDASPSAADIPNIADVPIGAIPLLSVASPEFHETVNKTVAAANIVYHEFLKSEEGHGFSGQIVMLGDSMGSLLAYEALCRSNGSQPGTASGASNSGGDAATNINTHNPLSPRNSRLDDDERFIEADLDAKRLLVAPSPRRRRSSSSSDSRATKLDFEVCDFFMFGSPLSVVLAARKLHDAKAALPRPNCHQVYNLFHPTDPIASRLEPLLSARFSILAPVNVPRYAKYPLGNGQPLHLLEVIQSHPQHFNDGNNLLAGRRLSDASMQSTISGLIENVSLSTIHALQNKWWGTKRLDYALYCPEGLSNFPAHALPHLFHASYWESPDVIAFILRQIGKFEGIPFVGSNDDKDNASFHPGQPREKWIKKRTSVKLKNVAANHRANDVIVQEGREQRLNARFMYGPLDMITLHGEKVDVHIMKDPPAGEWTFLSTEVTDKNGRISYSIPDQVSLGYGIYPVKMVVRGDHTSVDCYMAVVPPLTECVVFSIDGSFTASMSVTGRDPKVRAGAVDVCRHWQELGYLLIYITGRPDMQQQRVVSWLSQHNFPHGLISFADGLSTDPLGHKTAYLNNLVQNHGISITAAYGSSKDISVYTNVGMRTDQIFIVGKVGKKLQSNATVLSDGYAAHLAGLQAVGGSRPAKGNARMVIPRGCFNLPGQTANPRRRRYLERKTVSSCCLMVFQTT
For B2, the binding entry in test [5] was “binds”.

B3: dCert::TurboID (protein, UniProt Q9Y128 1-601)
chain: MDTNAGESLGASPPSSNEAAAGSQSQSDASEEEEYLDNSIELRGYLSKWTNYIYGWQPRYIVLKDGTLSYYKSESESDFGCRGAISLTKATIKAHESDELRFDVVVNNLNNWCLRAETSEDRMHWVDVLQLYKADSGSTDTTSLRRHGSTMSLQSNTISLTSGGSLKKTQRNLREKVGELETFKDILFGQIETLQRYFDACSEVNKNNAQPLDLGDGLKSIDFKGESITFRATTSGVLTTLQHCLEIIAESDESWKRKLEREIDKRRRSEDQSKKLKDEVEKMKRLSYPGPDFEEGPHSTLPEDEFFDAVETGLDKIEEDMQLRFKLKLQSQISQTLVNVPHEAVAEGEEAREEFGTGAEATSHALWPEIDRVCKEQLHYAREGVGQDGNGWQIFADEGEIKMYKREEEVNGLVMDPLKAYHTVQGVTAREMCHYFFMPEFRNDWETTLEDCTILEKISADTLLFLQTHKRIWPASQRDAQFWSHMRKITDNLEPGARDMWVVCNNSTEYAKQESKNGKCVRIFLTVILACQTHLPEGYVKGQPLNRNDLTCKITYCSVVNPGGWAPASALRAVYKREYPKFLKRFTGYVIDQCKDKPIMF
Consider B3, for which the binding result in test [5] was “binds”.

B4: ORP1L (long isoform of ORP1) (protein, UniProt Q9BXW6-1 1-950)
chain: MNTEAEQQLLHHARNGNAEEVRQLLETMARNEVIADINCKGRSKSNLGWTPLHLACYFGHRQVVQDLLKAGAEVNVLNDMGDTPLHRAAFTGRKELVMLLLEYNADTTIVNGSGQTAKEVTHAEEIRSMLEAVERTQQRKLEELLLAAAREGKTTELTALLNRPNPPDVNCSDQLGNTPLHCAAYRAHKQCALKLLRSGADPNLKNKNDQKPLDLAQGAEMKHILVGNKVIYKALKRYEGPLWKSSRFFGWRLFWVVLEHGVLSWYRKQPDAVHNIYRQGCKHLTQAVCTVKSTDSCLFFIKCFDDTIHGFRVPKNSLQQSREDWLEAIEEHSAYSTHYCSQDQLTDEEEEDTVSAADLKKSLEKAQSCQQRLDREISNFLKMIKECDMAKEMLPSFLQKVEVVSEASRETCVALTDCLNLFTKQEGVRNFKLEQEQEKNKILSEALETLATEHHELEQSLVKGSPPASILSEDEFYDALSDSESERSLSRLEAVTARSFEEEGEHLGSRKHRMSEEKDCGGGDALSNGIKKHRTSLPSPMFSRNDFSIWSILRKCIGMELSKITMPVIFNEPLSFLQRLTEYMEHTYLIHKASSLSDPVERMQCVAAFAVSAVASQWERTGKPFNPLLGETYELVRDDLGFRLISEQVSHHPPISAFHAEGLNNDFIFHGSIYPKLKFWGKSVEAEPKGTITLELLEHNEAYTWTNPTCCVHNIIVGKLWIEQYGNVEIINHKTGDKCVLNFKPCGLFGKELHKVEGYIQDKSKKKLCALYGKWTECLYSVDPATFDAYKKNDKKNTEEKKNSKQMSTSEELDEMPVPDSESVFIIPGSVLLWRIAPRPPNSAQMYNFTSFAMVLNEVDKDMESVIPKTDCRLRPDIRAMENGEIDQASEEKKRLEEKQRAARKNRSKSEEDWKTRWFHQGPNPYNGAQDWIYSGSYWDRNYFNLPDIY
On to B4, for which the binding entry is listed as “no binding” in test [1], “binds” in test [2], “no binding” in test [3] and “binds” in test [4].

B5: STARD3NL (protein, UniProt O95772 1-234)
chain: MNHLPEDMENALTGSQSSHASLRNIHSINPTQLMARIESYEGREKKGISDVRRTFCLFVTFDLLFVTLLWIIELNVNGGIENTLEKEVMQYDYYSSYFDIFLLAVFRFKVLILAYAVCRLRHWWAIALTTAVTSAFLLAKVILSKLFSQGAFGYVLPIISFILAWIETWFLDFKVLPQEAEEENRLLIVQDASERAALIPGGLSDGQFYSPPESEAGSEEAEEKQDSEKPLLEL
On to B5, for which the binding result in test [1] is “no binding”; in test [2], “binds”; in test [3], “no binding”; in test [4], “binds”.
